From patent publication US20240101686A1 (SIMCERE ZAIMING PHARMACEUTICAL, published 2024)
Read-outs that look alike come from different tables or passages of the source.

B1: S008-NB148-69 (Fc fusion)
chain: EVQVVESGGGLVQAGGSLRLSCAASTITISSAGVSWYRQAPGKQRELVAIITRGGSTNYADSVKGRFTISRDNAKNTHYLQMYNLKPEDTGIYYCNVVPPTYWGQGTQVTVSS[human IgG1 Fc with changes not shown]
notes: VHH-Fc (VHH, human IgG1 hinge, human IgG1 Fc)
B2: S008-NB148-8 (Fc fusion)
chain: EVQLVESGGGLVQAGGSLRLSCVVSGSTFSSYAMGWYRQAPGKQRELVAAISSGVSANVADSLKGRFAISRDNAKNAVYLQMNSLKPEDTAVYYCNTLPRSMPYWGKGTLVTVSS[human IgG1 Fc with changes not shown]
notes: as for B1
B3: S008-NB148-9 (Fc fusion)
chain: EVQLVESGGGLVQAGGSLRLSCAASGSTLSSYAMGWYRQAPGKQRELVAAISSGGGSTNYRDSVKGRFTISRDNAKNTVYLQMNSLKPEDTAVYYCKSTDYGSLFDSWGQGTQVTVSS[human IgG1 Fc with changes not shown]
notes: as for B1
B4: S008-NB149-12 (Fc fusion)
chain: QVQLVESGGGLVQPGGSLRLSCVVSESISVINAMTWYRQAPGKQRELVALISRGGSTNYADSVKGRFTISRDNAKNSVYLQMNSLKPEDTALYYCNVVPPLGSWGQGTQVTVSS[human IgG1 Fc with changes not shown]
notes: as for B1
B5: S008-NB149-15 (Fc fusion)
chain: QLQLVESGGGLVRPGGSLRLSCAASGSIFSRSGATWYRQAPGKQRELVALLTRDGHTDYPVVSVKGRFTISKDNAKNTVYLQMNSLQPEDTAVYYCNAIPPLGSWGRGTQVTVSS[human IgG1 Fc with changes not shown]
notes: as for B1
B6: S008-NB149-22 (Fc fusion)
chain: QVQLVESGGGLVQAGGSLRLSCVASGRFPSIYRMAWFRQAPGKERDFVAAINWGGTATYYEDSVKGRFTISRDNTKNTVWLQMNSLKPEDTAVYYCAAGTGTTYTPQRGDAYGYWGQGTQVTVSS[human IgG1 Fc with changes not shown]
notes: as for B1
B7: S008-NB149-9 (Fc fusion)
chain: QVQLVESGGFVQAGGSLRLSCAASGRTFSKYAMGWFRQAPGKEREFVAAIRWIGGSTYYADSVKGRFTISRDNDKNTLYLQMNSLKPEDTAVYYCAAGYQAYPEPPWEYDYWGQGTQVTVSS[human IgG1 Fc with changes not shown]
notes: as for B1
B8: S008-NB148-13 (Fc fusion)
chain: EVQVVESGGGLVQPGGSLRLSCAASDDISSIYTMAWYRQAPGKQRELVALVTPGGGTNYADSVKGRFTISRDNAKNTVYLQMNSLKPEDTAVYYCNARHRVTGFAYWGQGTQVTVSS[human IgG1 Fc with changes not shown]
notes: as for B1
B9: S008-NB148-25 (Fc fusion)
chain: EVQLVESGGGLVQPGGSLRLSCAVSQSISSINAMDWYRQAPGKQRELVAIIFNNGRTNYADSVKGRFTISRDNARNTVYLQMNSLKPEDTAVYYCNIVPPLRNWGQGTQVTVSS[human IgG1 Fc with changes not shown]
notes: as for B1
B10: S008-NB148-30 (Fc fusion)
chain: EVQLVESGGGLVRAGGSLRLSCAASGTISSYDVVGWYRQAPGKQRELVALIGTDRWLNLGDFAKGRFTMSTDDAANTVDLEMNSLKPEDTAVYYCYTFQHTVGPRWGQGTQVTVSS[human IgG1 Fc with changes not shown]
notes: as for B1
B11: S008-NB148-48 (Fc fusion)
chain: QLQLVESGGGLVQAGGSLKLSCVASGFTFSNYAMAWYRQAPGKQRELIASCSASCIWTNYGASVKGRFTMSLDNAKKTVYLQMDSLKPEDTAVYYCRNLDANYWGQGTQVTVSS[human IgG1 Fc with changes not shown]
notes: as for B1
B12: S008-NB148-5 (Fc fusion)
chain: QLQLVESGGGLVQAGGSLRLSCAVSISTFTTNGWDWYRQAPGKQRELVALISNDGTTTYTDSVKGRFTISRDGAKNTVYLQMNNLKPEDTAVYYCNTIPPAGSWGQGTQVTVSS[human IgG1 Fc with changes not shown]
notes: as for B1

Key:
human EGFR on cells [1] = target: T1, human EGFR on cells (human, UniProt P00533)
[2] = target: T2, human EGFR-His-tagged fusion protein (human, UniProt P00533 part only)
T2 construct: extracellular domain; bought; also called human EGFR protein; human EGFR-His protein

[3] = target: T2, human EGFR-His-tagged fusion protein; remark: listed apart in the source
[4] = target: T2, human EGFR-His-tagged fusion protein; remark: listed apart in the source
[5] = target: T2, human EGFR-His-tagged fusion protein; remark: listed apart in the source
[6] = target: T2, human EGFR-His-tagged fusion protein; remark: listed apart in the source
[7] = target: T2, human EGFR-His-tagged fusion protein; remark: listed apart in the source
[8] = target: T2, human EGFR-His-tagged fusion protein; remark: listed apart in the source
[9] = target: T2, human EGFR-His-tagged fusion protein; remark: listed apart in the source
human EGFR on cells [10] = target: T1, human EGFR on cells; remark: listed apart in the source

Row | Binder | EC50 (human EGFR on cells [1]) [nM] | Max MFI (human EGFR on cells [1]) | OD450 [2] | OD450 [3] | OD450 [4] | OD450 [5] | OD450 [6] | OD450 [7] | OD450 [8] | OD450 [9] | EC50 (human EGFR on cells [10]) [nM] | Max MFI (human EGFR on cells [10])
1 | B1 | 116 | 23100 | 0.06 | 2.11 | 0.72 | 0.06 | 2.49 | 2.86 | 2.59 | 0.14 | 8.89 | 13200
2 | B2 | 28.8 | 37700 | 0.06 | 2.08 | 0.7 | 0.06 | 2.5 | 2.83 | 2.65 | 0.14 | 3.6 | 11200
3 | B3 | 8.77 | 28900 | 0.07 | 2.27 | 0.95 | 0.05 | 2.55 | 2.94 | 2.76 | 0.21 | 2.37 | 15800
4 | B4 | 69.5 | 21400 | 0.04 | 1.7 | 0.57 | 0.07 | 2.06 | 2.22 | 1.95 | 0.11 | 87.7 | 41100
5 | B5 | 16.4 | 35200 | 0.09 | 2.14 | 1.05 | 0.24 | 2.35 | 2.71 | 2.47 | 0.23 | 5.38 | 18800
6 | B6 | – | 3190 | 0.04 | 1.52 | 0.42 | 0.05 | 1.96 | 2.27 | 2.17 | 0.09 | – | 12200
7 | B7 | 1.5 | 32900 | 0.06 | 1.44 | 0.43 | 0.13 | 1.77 | 1.84 | 1.94 | 0.09 | 0.26 | 3960
8 | B8 | 2.24 | 37000 | 0.06 | 1.44 | 0.77 | 0.05 | 2.42 | 2.65 | 2.5 | 0.18 | 1.63 | 15900
9 | B9 | 10.9 | 38500 | 0.06 | 2.26 | 0.78 | 0.07 | 2.6 | 2.91 | 2.7 | 0.16 | 3.32 | 15400
10 | B10 | 19.3 | 14200 | 0.12 | 1.99 | 0.6 | 0.05 | 2.64 | 2.91 | 2.75 | 0.18 | 4.33 | 9110
11 | B11 | 3.61 | 28800 | 0.09 | 2.23 | 0.79 | 0.06 | 2.69 | 2.96 | 2.64 | 0.17 | 1.17 | 8370
12 | B12 | 151 | 15400 | 0.06 | 2.13 | 0.76 | 0.06 | 2.61 | 2.94 | 2.82 | 0.15 | 30.3 | 15200
